Data: the supplement of paper PMC3334620
Over roughly 33,000 sequences, “E-score (-0.5 to 0.5)” has its median near -0.035; the highest 2% begin near 0.34. Some of the results follow.

Target: T1, Mot3 (UniProt P54785)
T1 sequence: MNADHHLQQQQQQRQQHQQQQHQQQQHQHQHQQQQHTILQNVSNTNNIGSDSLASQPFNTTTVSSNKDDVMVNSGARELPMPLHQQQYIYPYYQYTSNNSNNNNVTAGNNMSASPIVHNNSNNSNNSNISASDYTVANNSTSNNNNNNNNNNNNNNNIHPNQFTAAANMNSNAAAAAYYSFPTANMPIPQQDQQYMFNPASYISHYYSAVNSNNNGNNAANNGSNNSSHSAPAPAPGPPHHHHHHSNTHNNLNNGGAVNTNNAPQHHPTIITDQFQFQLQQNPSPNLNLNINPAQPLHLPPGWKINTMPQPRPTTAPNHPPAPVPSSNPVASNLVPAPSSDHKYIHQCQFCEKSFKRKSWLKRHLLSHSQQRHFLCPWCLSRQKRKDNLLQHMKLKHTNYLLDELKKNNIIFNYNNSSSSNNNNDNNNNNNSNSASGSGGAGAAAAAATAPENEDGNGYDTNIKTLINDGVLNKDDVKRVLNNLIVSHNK
Assay: PBM E-score (8-mer binding enrichment) (E-score (-0.5 to 0.5)); higher = stronger / more preferred TF binding; most listed sequences are background and not binding sites
Settings: protein concentration: 200 nM; construct: GST-full length
Summary of the method: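 Universal all-10-mer Agilent arrays, fresh or stripped once, were converted to double-stranded form by primer extension. GST-tagged yeast transcription factors from PURExpress in vitro transcription/translation, full-length or DNA-binding domain only, were applied at about 100-200 nM and detected with fluorescent anti-GST. After masliner normalisation, the Universal PBM Analysis Suite scored each ungapped eight-base word together with its reverse complement by E-score.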

In order of rising “PBM E-score” value:
1. CCGGGCCA  -0.364
2. CGGAGATC  -0.358
3. CTGCGCCC  -0.348
4. CAGAGGCC  -0.341
5. CCCTCCCG  -0.318
6. CTTCCCCC  -0.31
7. CCTTAGAG  -0.308
8. CCGGCATA  -0.298
9. CGACTCCG  -0.293
10. CCGACCTC  -0.289
11. CCACGACC  -0.285
12. AAGCTCCC  -0.279
13. AGCCACTA  -0.272
14. AAGGACCC  -0.263
15. CAGTCGGA  -0.259
16. AGCCTCGG  -0.259
17. GCCCCGAC  -0.253
18. GGTGCGAC  -0.251
19. GGTGATCA  -0.249
20. AACTGCCC  -0.249
21. CTCAGATC  -0.248
22. AGTGGTGA  -0.246
23. GGCTAAGA  -0.24
24. AAGAGCCC  -0.24
25. CGGTCATC  -0.228
26. ACTGCCCC  -0.227
27. CCCCACGG  -0.224
28. CGGACGGC  -0.222
29. GAGCCATC  -0.22
30. AGCGCCGG  -0.217
31. ATGTGGCA  -0.205
32. TCGCAGAA  -0.204
33. GCTCGGCA  -0.204
34. ATCGTCCA  -0.201
35. AAGAACTG  -0.196
36. AGGCCTAG  -0.194
37. GCGGGCGA  -0.19
38. AAAGGGCT  -0.186
39. TATGATGA  -0.177
40. CGTGGTTC  -0.169
41. CTGGCGTC  -0.167
42. AGCTCGGC  -0.158
43. CCCCAGCA  -0.158
44. CCTCAGCA  -0.156
45. ATAGATGC  -0.15
46. AACTCCCC  -0.148
47. GTATGGAC  -0.146
48. ACTCGCAG  -0.141
49. AGTTGCAG  -0.139
50. GAATCTCA  -0.136
51. AAAGCGCA  -0.133
52. CGAACTCG  -0.133
53. AATTCCCC  -0.133
54. AAGCGATA  -0.13
55. ACGCCGTC  -0.13
56. AAGCGCCA  -0.129
57. CGATTGCG  -0.128
58. CAACTCTA  -0.124
59. GTCTATTA  -0.123
60. TCAGTAGA  -0.119
61. ACGGAGTA  -0.118
62. CTCTTCTA  -0.117
63. GGCGTCGA  -0.117
64. CTACTAAA  -0.115
65. AGTCCAAA  -0.115
66. AGACATTG  -0.113
67. AGGCGATG  -0.111
68. AGCTACTC  -0.11
69. CTAGGAAG  -0.108
70. AAGACCCT  -0.102
71. CACTATAG  -0.0956
72. ATGTCGGC  -0.0944
73. ACTCGGCC  -0.0939
74. CACTGCGG  -0.0924
75. TCTCCACA  -0.0924
76. AATAGTCT  -0.0921
77. CTGAGTGC  -0.0909
78. CCGTAATC  -0.0904
79. GCAGTTGA  -0.0889
80. GGAATGAA  -0.0882
81. GGATATCA  -0.0793
82. ATTCCCTA  -0.0741
83. CCACGAAA  -0.0721
84. GACCCGTA  -0.0718
85. GCGCACGA  -0.0702
86. ACGTGCGG  -0.0607
87. CACTTGGC  -0.0541
88. AGTTCGCC  -0.0522
89. TGTGGGAA  -0.0508
90. CTGCAGAC  -0.0439
91. ATATCCTA  -0.0436
92. GAGAAGGA  -0.0391
93. ATGAAAGA  -0.0332
94. AGATGTCA  -0.0293
95. CGAAACGA  -0.0279
96. AGCCATAG  -0.0266
97. CTCACAGA  -0.0257
98. AGTTCAAA  -0.0249
99. CCAAAACG  -0.0187
100. TGGGCAAA  -0.0148
101. CCGTCGTA  -0.0137
102. AAAATGGG  -0.00493
103. TACCAAGA  -0.00408
104. AACTCCCG  0.00241
105. TACACCAA  0.00253
106. GTCAATAA  0.00788
107. AATGCTAG  0.00844
108. GAAAATCC  0.0103
109. ACCTTATG  0.0112
110. CACCCGAC  0.0141
111. AGGCCACT  0.0259
112. CTTGGTTA  0.0291
113. CTAAAATA  0.036
114. TACTGAAA  0.037
115. GAGAGGAC  0.0385
116. AATCATTG  0.0428
117. ACAGTTTC  0.0445
118. CGTCTAAA  0.0459
119. CTGAGTAC  0.0463
120. GAACTGTC  0.0464
121. CCACAGGA  0.0479
122. CACCCGTG  0.0481
123. CTCAGACA  0.0498
124. ACTAATGC  0.0519
125. ACTTGATA  0.0522
126. AAGTAATG  0.0523
127. ACGAGATA  0.0538
128. CGTACACC  0.0546
129. ATAAATAG  0.059
130. AGATCTAC  0.0591
131. AACCCTAT  0.0725
132. CCTATTCA  0.0778
133. GTTAGTAA  0.0859
134. CGCTACAA  0.087
135. CCTTTTCA  0.0956
136. CAATCTAC  0.0957
137. AAGTTCGC  0.0983
138. CCTTTACC  0.102
139. GCTACATA  0.102
140. ATGCATAC  0.12
141. AAGACTTG  0.121
142. GGTTATGA  0.121
143. CATGCCAA  0.14
144. GCATTATA  0.143
145. CCGGACGC  0.144
146. AACCAGTT  0.148
147. ATAAATAC  0.159
148. AAATAATC  0.162
149. ATACGCAC  0.164
150. TCCTGTCA  0.165
151. AAGTTTTG  0.167
152. TATTATAA  0.167
153. GGATTTAC  0.174
154. TCTACTCA  0.178
155. AGCCTGAT  0.183
156. ACTTCAAT  0.183
157. AACAATGC  0.203
158. TTATAAAA  0.209
159. ACAAAACA  0.211
160. TTACTCAA  0.215
161. CTTTAGAC  0.217
162. GTTATAAA  0.234
163. ACGCGTTC  0.235
164. GTAAAGCA  0.25
165. ATGTAGTG  0.255
166. ACGTACAC  0.259
167. AAGTACAT  0.265
168. ATTGTTGC  0.266
169. CACATTAC  0.277
170. ACGCGCGT  0.289
171. CAGGCTCA  0.392
172. GAAGGTAA  0.397
